Assay results reported in PMC4336329 (PLoS ONE, 2015).
Hit rate of the full screen: of about 310,000 compounds, about 14,000 (4.5%) showed an effect of 50% or more. Effects have a minus sign here. The list shows a part of the results.

Target: human ether-à-go-go-related gene (hERG) potassium channel (human, UniProt Q12809)
Test: primary screen, population patch clamp on CHO cells stably expressing hERG
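Further: peak tail current of the secondary pulse compared with the same well before compound.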

Sequence of human ether-à-go-go-related gene (hERG) potassium channel (Q12809 whole entry, looked up): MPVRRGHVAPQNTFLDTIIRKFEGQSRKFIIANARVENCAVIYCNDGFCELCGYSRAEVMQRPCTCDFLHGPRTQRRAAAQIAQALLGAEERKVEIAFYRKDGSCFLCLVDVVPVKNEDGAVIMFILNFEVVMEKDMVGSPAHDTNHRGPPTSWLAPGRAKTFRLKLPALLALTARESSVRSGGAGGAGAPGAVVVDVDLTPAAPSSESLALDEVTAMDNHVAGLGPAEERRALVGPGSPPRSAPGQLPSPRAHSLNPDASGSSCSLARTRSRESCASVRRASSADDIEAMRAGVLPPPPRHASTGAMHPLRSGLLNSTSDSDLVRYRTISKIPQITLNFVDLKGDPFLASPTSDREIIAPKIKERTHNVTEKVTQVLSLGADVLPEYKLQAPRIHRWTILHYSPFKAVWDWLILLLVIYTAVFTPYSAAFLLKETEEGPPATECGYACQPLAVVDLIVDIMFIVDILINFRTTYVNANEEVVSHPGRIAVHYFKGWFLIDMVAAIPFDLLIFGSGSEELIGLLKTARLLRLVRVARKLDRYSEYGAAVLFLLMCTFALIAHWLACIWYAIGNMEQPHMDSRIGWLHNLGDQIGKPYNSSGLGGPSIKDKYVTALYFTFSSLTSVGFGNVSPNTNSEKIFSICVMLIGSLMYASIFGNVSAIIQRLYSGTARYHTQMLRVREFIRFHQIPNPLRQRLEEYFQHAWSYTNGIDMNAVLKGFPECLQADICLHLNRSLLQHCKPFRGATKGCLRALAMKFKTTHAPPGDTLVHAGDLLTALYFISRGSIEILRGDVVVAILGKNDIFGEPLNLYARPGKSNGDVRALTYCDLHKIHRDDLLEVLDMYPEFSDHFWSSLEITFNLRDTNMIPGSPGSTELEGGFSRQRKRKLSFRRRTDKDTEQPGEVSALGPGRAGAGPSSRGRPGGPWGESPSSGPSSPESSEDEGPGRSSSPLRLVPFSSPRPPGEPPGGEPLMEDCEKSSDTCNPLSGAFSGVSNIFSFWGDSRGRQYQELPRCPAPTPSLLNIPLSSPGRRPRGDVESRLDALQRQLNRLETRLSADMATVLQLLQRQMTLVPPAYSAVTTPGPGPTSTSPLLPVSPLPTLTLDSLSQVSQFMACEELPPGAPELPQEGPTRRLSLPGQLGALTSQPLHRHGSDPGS

SMILES	hERG current change (%, negative = inhibition) at 10uM [%]
CCOC(=O)c1cnn(-c2ncnc3c2cnn3Cc2ccccc2)c1N	11.3
COc1ccccc1CNS(=O)(=O)c1cccs1	18.8
CCOC(=O)N1CCN(C(=O)Nc2ccc(Cl)cc2Cl)CC1	0.0383
COc1cc2c(cc1OC)-c1cc(OCc3ccccc3Cl)nc(=O)n1CC2	-44.9
CC(=O)Nc1ccc(NC(=O)c2c(-c3ccccc3Cl)noc2C)c(C)c1	2.4
CCOC(=O)c1ccc(NC(=O)NS(=O)(=O)c2ccc(C)cc2)cc1	10.9
OC(c1ccncc1)(c1ccc(F)cc1)c1ccc(F)cc1	3.15
Cc1cccc(N/C(N)=N/c2nc3c(c(=O)[nH]2)CCCC3)c1	-2.75
COC(=O)c1cc(-c2ccccc2)n(CC(=O)O)c1C	1.69
Cc1nc(C)c(-c2ccn(S(=O)(=O)c3ccc(Cl)cc3)n2)o1	-19.7
CCOC(=O)c1ccc(NC(=S)NC(=O)COc2ccccc2)cc1	11
COc1ccccc1CNC(=S)Nc1ccc(S(N)(=O)=O)cc1	17.4
COc1cccc(-n2c(SCC(=O)N3CCCCC3)nc3c([nH]c4ccccc43)c2=O)c1	12.4
O=C(NCCc1nc2ccccc2[nH]1)/C(=C/c1ccco1)NC(=O)c1ccc(Br)o1	-63.2
CCOc1ccccc1N1CCN(C/C=C/c2ccc(N(C)C)cc2)CC1	-60.1
COC/C=C/C1=CC2=CC(=O)C(C)(OC(=O)c3ccco3)C(=O)C2=CO1 (centres unmarked)	23.9
COCCCn1c(SCC(=O)N(C)C)nnc1-c1ccccc1	21.5
CC(NC(=O)C(=O)N1CCCCC1)C(c1cccs1)N1CCN(C)CC1 (centres unmarked)	19.9
CC(C)(C)c1nnc2sc(SCC(=O)c3ccc4c(c3)OCCO4)nn2c1=O	26
Cn1c(N)c(C(=O)COC(=O)c2cc(S(=O)(=O)N3CCCCC3)ccc2Cl)c(=O)n(C)c1=O	-10.3
CC(=O)Nc1ccccc1C(=O)C(=O)O	12.4
CN(CCNC(=O)CN1C(=O)CSc2ccc(S(=O)(=O)N3CCCC3)cc21)Cc1ccccc1	-36.9
O=C(c1ccco1)N1CCN(c2ccnc3cc(Cl)ccc23)CC1	-71.5

SMILES	hERG current change (%, negative = inhibition) at 10uM [%]
NS(=O)(=O)c1cc(C(=O)OCC(=O)c2ccccc2)c(Cl)cc1Cl	4.64
COc1ccc(CNc2nc3ccccc3n2CCN2CCCCC2)c(OC)c1	-84.4
CC(C)Cn1c(N)c(C(=O)COC(=O)C2Cc3ccccc3CN2S(C)(=O)=O)c(=O)n(C)c1=O (centres unmarked)	-17.5
CCc1ccc(S(=O)(=O)NC(=S)Nc2ccccc2)cc1	10
CCOC(=O)CN(Cc1sccc1C)C(=O)Nc1ccc(OC)cc1OC	11.9
Cc1ccc2cc3c(N)c(C(=O)N4CCOCC4)sc3nc2c1	-5.21
O=C(c1cccc(S(=O)(=O)N2CCc3ccccc3C2)c1)N1CCN(c2ccc(O)cc2)CC1	-22.1
O=C(Oc1ccccc1C(=O)N1CCOCC1)c1ccccc1	4.13
C#Cc1ccc([C@@H]2C=C(C(=O)N3CCN(Cc4ccccc4)CC3)O[C@H](OCC)[C@H]2CCCO)cc1	-17.2
c1ccc(Nc2ncnc3c2oc2ccccc23)cc1	2.86
O=[N+]([O-])c1ccc(N2CCOCC2)c2cccnc12	-25
Cc1ccc(N(CCC#N)C(=O)CCl)cc1C	13.6
COc1cc(/C=C/C(=O)O)cc2c1OCCO2	20.7
CCN(Cc1ccccc1)C(=O)c1cc(COc2c(F)cccc2F)on1	3.85
Cn1cc(/C=N\NC(=O)C2COc3ccccc3O2)c2ccccc21 (centres unmarked)	9.62
Cc1cccnc1NC(=O)Cn1nc(C)c([N+](=O)[O-])c1C	9.28
O=C(NCC(c1cccnc1)N1CCN(c2ccccc2)CC1)Oc1ccccc1 (centres unmarked)	-19.2
NS(=O)(=O)c1ccc(Nc2nc(-c3ccc(O)cc3O)cs2)cc1	-9.04
N#CCn1c(CCl)nc2ccccc2c1=O	23.6
CC(=O)OCCSc1c(-c2ccccc2)c2cc(Cl)ccc2[nH]c1=O	-4.37
CN(C)C(=S)NC(=O)c1cccc(Cl)c1	27.3
O=C(/C=C/c1ccccc1Cl)NC1CCS(=O)(=O)C1 (centres unmarked)	6.38
Cc1cc(-n2c(=S)sc3c(=O)n(-c4ccc(F)cc4)c(SCC(=O)O)nc32)ccc1Cl	28.8

SMILES	hERG current change (%, negative = inhibition) at 10uM [%]
Nc1ccccc1C(=O)NCc1ccccc1	7.95
CC(OC(=O)c1cnc2ccccc2n1)c1ccccc1Cl (centres unmarked)	3.11
CN1C(=O)C(=Cc2ccccc2OS(=O)(=O)c2ccccc2)C(=O)N(C)C1=O	8.72
O=C(Nc1csc(Cc2c(Cl)cccc2Cl)n1)NN1CCOCC1	0.272
O=C(Nc1cc([N+](=O)[O-])ccc1C(=O)Nc1cccnc1)c1ccccc1	1.51
CC(=O)Nc1cccc(NC(=O)CCCC(=O)O)c1	15.7
O=C(/C=C/c1cn(-c2ccccc2)nc1-c1ccccc1)Nc1ccc(C(=O)O)cc1	14.2
N=C1S/C(=C\c2cccc3ccccc23)C(=O)N1c1ccc(F)cc1	14
COc1ccc(C(NC(=O)C(C)(C)C)NC(=O)C(C)(C)C)cc1	13.6
CC(CC(=O)c1cccs1)CC(=O)c1cccs1	-4.16
COc1cc(SC)ccc1C(=O)Nc1cccc(S(=O)(=O)NC2=NCCC2)c1	-2.48
CCN(CC)S(=O)(=O)c1ccc(/C=C/C(=O)Nc2ccc(Br)cc2F)cc1	-6.08
CCOC(=O)c1[nH]c2ccc(F)cc2c1NC(=O)CN1CCN(C/C=C/c2ccccc2)CC1	-80.7
O=C(Nc1ccc(C(=O)N2CCOCC2)cc1)c1ccccc1[N+](=O)[O-]	24
COCCNC(=O)COC(=O)c1cc(-c2ccc(OC)cc2)nc2ccccc12	6.35
Cc1cc(C)c(S(=O)(=O)Cc2ccccc2)c(=O)[nH]1	4.47
CN(C)C=Nc1ccc2nc3c(cc2c1)[nH]c1ccccc13	1.72
COC(=O)CNC(=O)COC(=O)/C=C/c1ccc2ccccc2n1	-7.5
COc1ccc(CN2C(=O)Cc3c2nc(N)c2c(N)nc(N4CCOCC4)c(C#N)c32)cc1	-36.8
CCOc1ccccc1CNS(=O)(=O)c1cc(-c2cc(C)no2)ccc1C	-19
COc1ccc(-c2nc(C#N)c(NC(C)C)o2)cc1	13.6
CC(C)(C)OC(=O)C1C(=O)CC(C)(O)C(C(=O)OC(C)(C)C)C1c1ccco1 (centres unmarked)	-9.35
CCN(c1ccccc1)S(=O)(=O)c1cc(C(=O)O)ccc1C	-5.27

SMILES	hERG current change (%, negative = inhibition) at 10uM [%]
Cc1nc(Cl)c2c(n1)NC1=C(O2)C(=O)CCC1	14.7
CSCCC1NC(=S)N(Cc2ccccc2)C1=O (centres unmarked)	16.3
CCOC(=O)c1sc(=NC(=O)COc2ccc(Cl)cc2)n(C)c1C	3.44
COc1ccccc1OCCSc1nnnn1C1CCCCC1	-17.8
CSc1n[nH]c(=O)n1-c1ccc(Cl)cc1	2.74
CC(C)OCCCNC(=O)c1cccc(NC(=O)c2ccccc2)c1	-5.08
O=C1OC(c2ccccc2)=N/C1=C/c1cccc(OC(=O)c2cccs2)c1	7.27
CN(C)c1ccc(/C=N/N=C2/SC(CC(=O)O)C(=O)N2c2ccc(O)cc2)cc1 (centres unmarked)	8.53
Oc1ccc(-n2nnnc2SCc2ccccc2Br)cc1	0.923
CC12CN3CC(C)(CN(C1)C3c1cccs1)C2O (centres unmarked)	-8.02
O=C(O)C1C2CC3CC(C2)CC1(n1ncc(N2CCC4(CC2)OCCO4)c(Cl)c1=O)C3 (centres unmarked)	0.177
Cc1cc(S(=O)(=O)Nc2ccc(C(=O)NCc3ccncc3)cc2)ccc1F	5.95
C=CCOC(=O)C1=C[C@@H](c2ccc3c(c2)OCO3)C[C@@H](OCCCCO)O1	-35.6
C=C(C)c1cccc(C(C)(C)NC(=O)N2CCCC2)c1	13.7
c1coc(Cn2c(SCc3nc4ccccc4[nH]3)nnc2-c2cnccn2)c1	-56.3
Cc1cc(C#N)c(SCC(N)=O)nc1-c1ccc(F)cc1	14.4
Cc1nc(C)c(C(=O)N/N=C/c2cc(Br)ccc2O)s1	-12.5
COc1ccc(-c2cc3c(=O)n(CC(=O)Nc4cccc(Cl)c4)nc(C)n3n2)cc1	14.8
CSc1ccc(/C=C/C(=O)c2ccc(O)cc2)cc1	-2.65
CCCN1C(=O)COc2ccc(C(=O)c3ccccc3C(=O)O)cc21	17.7
